Source: publication PMC9911399, “Two distinct binding modes provide the RNA-binding protein RbFox with extraordinary sequence specificity”
Residue numbers refer to the chain shown, from its start. Some of the results follow.

B1: GGGAAAA (DNA:RNA)
RNA: GGGAGACCGGAAUUCAGAUUGUCCGGGAAAAUUAAAUCCCGUCGUAGCCACCA
DNA 1: CAATCTGAATTCCGGTCTCCC
DNA 2: TGGTGGCTACGACGGGATT
B2: ACGAUCA (DNA:RNA)
RNA: B1 RNA with G25A, G26C, A29U, A30C
DNA 1: CAATCTGAATTCCGGTCTCCC
DNA 2: TGGTGGCTACGACGGGATT
B3: CCCAGCA (DNA:RNA)
RNA: B1 RNA with G25C, G26C, G27C, A29G, A30C
DNA 1: CAATCTGAATTCCGGTCTCCC
DNA 2: TGGTGGCTACGACGGGATT
B4: UAAGGAG (DNA:RNA)
RNA: B1 RNA with G25U, G26A, G27A, A28G, A29G, A31G
DNA 1: CAATCTGAATTCCGGTCTCCC
DNA 2: TGGTGGCTACGACGGGATT
B5: UAAAAUC (DNA:RNA)
RNA: B1 RNA with G25U, G26A, G27A, A30U, A31C
DNA 1: CAATCTGAATTCCGGTCTCCC
DNA 2: TGGTGGCTACGACGGGATT
B6: GCGAAGU (DNA:RNA)
RNA: B1 RNA with G26C, A30G, A31U
DNA 1: CAATCTGAATTCCGGTCTCCC
DNA 2: TGGTGGCTACGACGGGATT
B7: AGAGUCU (DNA:RNA)
RNA: B1 RNA with G25A, G27A, A28G, A29U, A30C, A31U
DNA 1: CAATCTGAATTCCGGTCTCCC
DNA 2: TGGTGGCTACGACGGGATT
B8: UAAGAGG (DNA:RNA)
RNA: B1 RNA with G25U, G26A, G27A, A28G, A30G, A31G
DNA 1: CAATCTGAATTCCGGTCTCCC
DNA 2: TGGTGGCTACGACGGGATT
B9: CACGGGG (DNA:RNA)
RNA: GGGAGACCGGAAUUCAGAUUGUCCCACGGGGUUAAAUCCCGUCGUAGCCACCA
DNA 1: CAATCTGAATTCCGGTCTCCC
DNA 2: TGGTGGCTACGACGGGATT
B10: CCUUACA (DNA:RNA)
RNA: B1 RNA with G25C, G26C, G27U, A28U, A30C
DNA 1: CAATCTGAATTCCGGTCTCCC
DNA 2: TGGTGGCTACGACGGGATT
B11: UUCUGCC (DNA:RNA)
RNA: B9 RNA with C25U, A26U, G28U, G30C, G31C
DNA 1: CAATCTGAATTCCGGTCTCCC
DNA 2: TGGTGGCTACGACGGGATT
B12: UAUGGUU (DNA:RNA)
RNA: B9 RNA with C25U, C27U, G30U, G31U
DNA 1: CAATCTGAATTCCGGTCTCCC
DNA 2: TGGTGGCTACGACGGGATT
B13: CAGAACA (DNA:RNA)
RNA: B1 RNA with G25C, G26A, A30C
DNA 1: CAATCTGAATTCCGGTCTCCC
DNA 2: TGGTGGCTACGACGGGATT
B14: UGUGGCA (DNA:RNA)
RNA: B9 RNA with C25U, A26G, C27U, G30C, G31A
DNA 1: CAATCTGAATTCCGGTCTCCC
DNA 2: TGGTGGCTACGACGGGATT
B15: GGCUGCA (DNA:RNA)
RNA: B1 RNA with G27C, A28U, A29G, A30C
DNA 1: CAATCTGAATTCCGGTCTCCC
DNA 2: TGGTGGCTACGACGGGATT
B16: AUAAGAG (DNA:RNA)
RNA: B9 RNA with C25A, A26U, C27A, G28A, G30A
DNA 1: CAATCTGAATTCCGGTCTCCC
DNA 2: TGGTGGCTACGACGGGATT
B17: GCCUUCU (DNA:RNA)
RNA: B9 RNA with C25G, A26C, G28U, G29U, G30C, G31U
DNA 1: CAATCTGAATTCCGGTCTCCC
DNA 2: TGGTGGCTACGACGGGATT
B18: UCAAUCU (DNA:RNA)
RNA: B1 RNA with G25U, G26C, G27A, A29U, A30C, A31U
DNA 1: CAATCTGAATTCCGGTCTCCC
DNA 2: TGGTGGCTACGACGGGATT
B19: AUACGGA (DNA:RNA)
RNA: B9 RNA with C25A, A26U, C27A, G28C, G31A
DNA 1: CAATCTGAATTCCGGTCTCCC
DNA 2: TGGTGGCTACGACGGGATT
B20: AUCCGUC (DNA:RNA)
RNA: B9 RNA with C25A, A26U, G28C, G30U, G31C
DNA 1: CAATCTGAATTCCGGTCTCCC
DNA 2: TGGTGGCTACGACGGGATT
B21: GUCAAGA (DNA:RNA)
RNA: B1 RNA with G26U, G27C, A30G
DNA 1: CAATCTGAATTCCGGTCTCCC
DNA 2: TGGTGGCTACGACGGGATT
B22: AGACUCG (DNA:RNA)
RNA: B9 RNA with C25A, A26G, C27A, G28C, G29U, G30C
DNA 1: CAATCTGAATTCCGGTCTCCC
DNA 2: TGGTGGCTACGACGGGATT
B23: UGUAAGU (DNA:RNA)
RNA: B1 RNA with G25U, G27U, A30G, A31U
DNA 1: CAATCTGAATTCCGGTCTCCC
DNA 2: TGGTGGCTACGACGGGATT
B24: GACACGU (DNA:RNA)
RNA: B9 RNA with C25G, G28A, G29C, G31U
DNA 1: CAATCTGAATTCCGGTCTCCC
DNA 2: TGGTGGCTACGACGGGATT
B25: GCGCUGA (DNA:RNA)
RNA: B1 RNA with G26C, A28C, A29U, A30G
DNA 1: CAATCTGAATTCCGGTCTCCC
DNA 2: TGGTGGCTACGACGGGATT
B26: UUCAAAU (DNA:RNA)
RNA: B1 RNA with G25U, G26U, G27C, A31U
DNA 1: CAATCTGAATTCCGGTCTCCC
DNA 2: TGGTGGCTACGACGGGATT
B27: UACGCAA (DNA:RNA)
RNA: B9 RNA with C25U, G29C, G30A, G31A
DNA 1: CAATCTGAATTCCGGTCTCCC
DNA 2: TGGTGGCTACGACGGGATT
B28: GUCGACU (DNA:RNA)
RNA: B9 RNA with C25G, A26U, G29A, G30C, G31U
DNA 1: CAATCTGAATTCCGGTCTCCC
DNA 2: TGGTGGCTACGACGGGATT
B29: GCCACGG (DNA:RNA)
RNA: B9 RNA with C25G, A26C, G28A, G29C
DNA 1: CAATCTGAATTCCGGTCTCCC
DNA 2: TGGTGGCTACGACGGGATT
B30: CACAACU (DNA:RNA)
RNA: B9 RNA with G28A, G29A, G30C, G31U
DNA 1: CAATCTGAATTCCGGTCTCCC
DNA 2: TGGTGGCTACGACGGGATT
B31: UAGCUAA (DNA:RNA)
RNA: B1 RNA with G25U, G26A, A28C, A29U
DNA 1: CAATCTGAATTCCGGTCTCCC
DNA 2: TGGTGGCTACGACGGGATT

Molecular target: T1, RBFOX1 RRM RbFoxmut (Fox-RRM*) (Homo sapiens, UniProt Q9NWB1 109-208, R118D;E147R;N151S;E152T)
T1 sequence: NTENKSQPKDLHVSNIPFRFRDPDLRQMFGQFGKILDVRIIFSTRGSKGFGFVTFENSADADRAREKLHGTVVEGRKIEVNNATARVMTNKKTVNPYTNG
Assay: EMSA; HiTS-Eq, 1 nM pool, 10 min; buffer printed only for the single-RNA assays: 10 mM Tris pH 7.5, 150 mM NaCl, 3.4 mM EDTA, 0.001% NP-40, 30 C
Details: tags: His6 N-terminal (pET28a); label: 5' 32P
Summary of the method: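 Purified RbFox RRM (wild type or mutant) was equilibrated for 10 min in 50 µL with 1 nM of a 5′-radiolabelled pool of RNA with 7 randomized nucleotides, its flanks annealed to DNA oligonucleotides, across increasing protein concentrations. Free RNA was separated by 8% native PAGE, excised, reverse-transcribed, PCR-barcoded and sequenced on an Illumina HiSeq 2500. Relative association constants came from read-count changes of each variant against the control reaction, normalised to the cognate motif.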

Row | Binder | binding signal
1 | B1 | 0.0576 KA relative to UGCAUGU
2 | B2 | 0.063 KA relative to UGCAUGU
3 | B3 | 0.106 KA relative to UGCAUGU
4 | B4 | 0.11 KA relative to UGCAUGU
5 | B5 | 0.0436 KA relative to UGCAUGU
6 | B6 | 0.0897 KA relative to UGCAUGU
7 | B7 | 0.0632 KA relative to UGCAUGU
8 | B8 | 0.0727 KA relative to UGCAUGU
9 | B9 | 0.0614 KA relative to UGCAUGU
10 | B10 | 0.132 KA relative to UGCAUGU
11 | B11 | 0.226 KA relative to UGCAUGU
12 | B12 | 0.0969 KA relative to UGCAUGU
13 | B13 | 0.0481 KA relative to UGCAUGU
14 | B14 | 0.136 KA relative to UGCAUGU
15 | B15 | 0.203 KA relative to UGCAUGU
16 | B16 | 0.139 KA relative to UGCAUGU

Row | Binder | binding signal
17 | B17 | 0.162 KA relative to UGCAUGU
18 | B18 | 0.0493 KA relative to UGCAUGU
19 | B19 | 0.0609 KA relative to UGCAUGU
20 | B20 | 0.106 KA relative to UGCAUGU
21 | B21 | 0.0794 KA relative to UGCAUGU
22 | B22 | 0.0985 KA relative to UGCAUGU
23 | B23 | 0.118 KA relative to UGCAUGU
24 | B24 | 0.0904 KA relative to UGCAUGU
25 | B25 | 0.0698 KA relative to UGCAUGU
26 | B26 | 0.0826 KA relative to UGCAUGU
27 | B27 | 0.0748 KA relative to UGCAUGU
28 | B28 | 0.0819 KA relative to UGCAUGU
29 | B29 | 0.104 KA relative to UGCAUGU
30 | B30 | 0.083 KA relative to UGCAUGU
31 | B31 | 0.0901 KA relative to UGCAUGU
